{"source": "paper PMC12136788", "binders": {"B1": {"name": "chr11:118268936:118268937:-_ENSMUSG00000025575_ENSMUST00000017620|mus_mus|FALSE|FALSE (ssRNA)", "RNA": "GGGAGUUCUACAGUCCGACGAUCACCCCUUGCUCCCAGUCUCCGAGCAGUACACCCAUAUGGGCCGGGGCUCAGCUCCCUAUAAUGAAAUUCUCUAGCCAGGAACACAGCUCUUAGUUAAAAAAAGAAAAAAAGCAAACGAGUCAACAGAGGAUUGAGCAUCA"}, "B2": {"name": "chr7:878492:878493:+_ENSG00000164828_ENST00000456758|hu_hu|motif|central (ssRNA)", "RNA": "GGGAGUUCUACAGUCCGACGAUCGUCGGCACCCACAGCCUCACCAUCCCCCAGGGUGCAUGCUGUCGUGGCCAGGCGCAAACGGCGGCGGGACAUCCGUGGAGAAUCAAAUACAGGGUCCAAUUUGUGCUCCGUCUCAAAAUCCAACAGAGGAUUGAGCAUCA"}, "B3": {"name": "chr16:94690476:94690477:+_ENSMUSG00000040785_ENSMUST00000117648|mus_hu|FALSE|FALSE (ssRNA)", "RNA": "GGGAGUUCUACAGUCCGACGAUCAGAAAUGGAAUGUGACCAGAAUUCAUGGUUCUAUAUUUACCACUGUCUAAAAGUCACAAAACAAUAUCUAAUUUUUUCAUGGUUUCUAAUGCAGUUACAGUUUUGUUCUUAGGUCACAGUCAACAGAGGAUUGAGCAUCA"}, "B4": {"name": "chr10:92717539:92717540:-_ENSMUSG00000008398_ENSMUST00000008542|mus_hu|motif|central (ssRNA)", "RNA": "GGGAGUUCUACAGUCCGACGAUCCUGGAACAGCGUGCUUGGCCCUUGCAGCCUGGCAGGACUCAGCGGAGCAACUGGACGGAGGCUGCUCCAGAAAUGUAUGCUGGAGAGCAGUGGACUCGGAGUCAGAAGCAAUCCAUUUGGCAACAGAGGAUUGAGCAUCA"}, "B5": {"name": "70209895_70218871_819_CDS_ENSG00000138346_ENST00000358410|human|control|control (ssRNA)", "RNA": "GGGAGUUCUACAGUCCGACGAUCUAUUUUGCCUUUCAAUCCAAACCUAGGGGACCAAAUGCUUUCUUCAAUAUCCAUUGGUUUCACGACUUCAAUGUUACAUGUUGAAUUAUCCUUACUAUUAUCACUUGGCAGAGAGAGCUGCAACAGAGGAUUGAGCAUCA"}, "B6": {"name": "chr1:155330963:155330964:-_ENSMUSG00000042699_ENSMUST00000042141|perfect_dup|FALSE|FALSE (ssRNA)", "RNA": "GGGAGUUCUACAGUCCGACGAUCCCCUUCUACUCGAACCUCACACAUGAAUUUCUGUCUGUUUUUGUUUCCUACUGCUCUAAUUUCAUAGGCUGGAGUCAUCUUCCUUUUGCCACACCAGGCAUACAGAAAAUUUUUAAUGUCCAACAGAGGAUUGAGCAUCA"}, "B7": {"name": "chr1:163112212:163112213:-_ENSG00000143248_ENST00000313961|hu_hu|hu_hu_hu_mus_False|18_68 (ssRNA)", "RNA": "GGGAGUUCUACAGUCCGACGAUCUUUUAUUAUCAGUAAGAGUGAGUUACAUACUAGGCAAAGUAUUGAAUACAAAAAUCAGGAAACAAACACUAUUGGUCCAGAAUUUAAAACUUUUGGGAUAAAUUGCUGGCACAGGACUUACAACAGAGGAUUGAGCAUCA"}, "B8": {"name": "chr14:89307221:89307222:+_ENSG00000165533_ENST00000346301|hu_mus|hu_hu_hu_mus_False|78_88 (ssRNA)", "RNA": "GGGAGUUCUACAGUCCGACGAUCUCCUGUUUGGUUAGUGCCAGGGAGUUUCAAAGACGUUCCAGGGCGUGGGACCUGAGCAAUAGCAUUUUCAUCCAGGAUCAUUUCAGCAAUUCCUUCCUGGUCCACAUCAAUUUCAUCUAUCAACAGAGGAUUGAGCAUCA"}, "B9": {"name": "chr2:153581767:153581768:+_ENSMUSG00000027479_ENSMUST00000028981|mus_mus|FALSE|FALSE (ssRNA)", "RNA": "GGGAGUUCUACAGUCCGACGAUCCACAGGAAUUAUUUUGUCAACGCCCAUCCUCUUGAAGCCUGCUUGUAGUAUUUUGAAGUUCUGGAUAUAUUCAUGUUCUAGCUUAGCUUGGAAUUUCACUUUCUUCAAGGCAAUGGAUCCCAACAGAGGAUUGAGCAUCA"}, "B10": {"name": "chr15:98780505:98780506:-_ENSMUSG00000072235_ENSMUST00000097014|mus_mus|FALSE|FALSE (ssRNA)", "RNA": "GGGAGUUCUACAGUCCGACGAUCCUUGUGACAUUUAAUUUAGUAUUCCUCUCCUUCUUCCUCCCCCUCGCCUUCCACAGAAUCCACACCAACCUCCUCAUAAUCCUUCUCUAGGGCAGCCAUGUCCUCACGGGCCUCAGAGAACAACAGAGGAUUGAGCAUCA"}, "B11": {"name": "chr2:198351390:198351391:-_ENSG00000144381_ENST00000345042|hu_hu|hu_hu_hu_mus_False|68_88 (ssRNA)", "RNA": "GGGAGUUCUACAGUCCGACGAUCUCAUUCCCACCCUCCACAGAAAGGCUGCUUAACAACUCUCAUGGUGGUGGCAAGCGCUACAGUCCUGAUGCUCACAGAACAGUAGAGAUGCCUCAGUGAUUUAAGUUGAAAGCAGGACACCAACAGAGGAUUGAGCAUCA"}, "B12": {"name": "chr2:47387610:47387611:-_ENSG00000143933_ENST00000272298|hu_mus|motif|central (ssRNA)", "RNA": "GGGAGUUCUACAGUCCGACGAUCUCCACGCAGAGUUACAGCUCCACACUUCAACAACAACAUGCUGACAGUUCCGGAAAGCGGCUUUAAAAAAGGCAUAACCCAGAUGUUCCCUCAUUGGACCAACUCCAUCUAAGUUUAGAUCAACAGAGGAUUGAGCAUCA"}, "B13": {"name": "chr1:23637546:23637547:-_ENSG00000125944_ENST00000302271|hu_mus|FALSE|FALSE (ssRNA)", "RNA": "GGGAGUUCUACAGUCCGACGAUCGCCAUAAUAAUCUGGAGGGUAGCCAUAUCCACCUCUCCCUCCACGACCUCGGCCUCUCAUUGGAGGUGGCAUUCGGGGAGGAGGGUGAUAAUAAUAAUCUUCAUACGCAGUGCUUCUGGACAACAGAGGAUUGAGCAUCA"}, "B14": {"name": "chr2:179515052:179515053:+_ENSMUSG00000000305_ENSMUST00000000314|mus_hu|mus_mus_mus_hu_False|68_108 (ssRNA)", "RNA": "GGGAGUUCUACAGUCCGACGAUCGCUUUCCCGCGCAGUCACCGUGAACGCCACCUGCUCGGAGGGGAUCUUCAACUCCCGGGUGGCGAAGACUGUCCCAUCUGCCCCAACUUUGAAGUCCAUGCUGUUGGUCUCAUAUUGUGUCAACAGAGGAUUGAGCAUCA"}}, "note": "This is one part of the list.", "data": [{"biological_target": "T1, UNK ZnF1-3 (human, UniProt Q9C0B0 31-174)", "T1 sequence": "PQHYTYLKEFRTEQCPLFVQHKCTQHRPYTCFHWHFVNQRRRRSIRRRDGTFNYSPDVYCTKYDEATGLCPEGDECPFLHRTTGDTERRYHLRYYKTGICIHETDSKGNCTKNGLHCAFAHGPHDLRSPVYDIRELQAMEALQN", "test": "nsRBNS (natural sequence RNA bind-n-seq); RBNS binding buffer (assumed for nsRBNS): 25 mM Tris pH 7.5, 150 mM KCl, 3 mM MgCl2, 0.01% Triton X-100, 500 ug/ml BSA, 20 U/ml SUPERase-In, 4 C; UNK is unkempt and MSI1 is Musashi-1; names of the RNAs are library labels; protein concentration not given here; high values mean tight binding", "units": {"binding signal": "enrichment R"}, "values": [{"binder": "B1", "binding signal": 2}, {"binder": "B2", "binding signal": 1.1}, {"binder": "B3", "binding signal": 0.515}, {"binder": "B4", "binding signal": 0.943}, {"binder": "B5", "binding signal": 0.977}, {"binder": "B6", "binding signal": 0.84}, {"binder": "B7", "binding signal": 1.33}, {"binder": "B8", "binding signal": 1.04}, {"binder": "B9", "binding signal": 0.84}, {"binder": "B10", "binding signal": 0.997}, {"binder": "B11", "binding signal": 1.04}, {"binder": "B12", "binding signal": 1.1}, {"binder": "B13", "binding signal": 0.785}, {"binder": "B14", "binding signal": 0.733}]}]}
